Reference: PubChem BioAssay AID2675 (National Center for Advancing Translational Sciences (NCATS), 2010)
The whole screen tested about 280,000 compounds, of which about 100 (0.036%) were called active. The shares of active, inactive and inconclusive entries below differ from those in the screen. The call rests on the fitted dose curve; in most records, active means well fitted inhibition curve with a large enough effect in the signal ratio, with a control signal flat (not every such curve was filed as active); inconclusive means small, poorly fitted or top-dose-only effect, or effect the other way, or a change in a side signal; inactive means no such curve, though single readings can be large or run the other way; the % refers to the signal ratio. A potency beside an inconclusive call is a rough fit, not a confirmed value. A note “side channel” means that the fit belongs to a control or component signal, not to the main read-out.
On the % scale 0 is the no-effect control and ±100 the full control effect; potency means the concentration at half of the fitted maximal effect; tags describe the fitted curve by direction and shape or compound fluorescence and quenching.

What follows are compounds tested against Muscleblind-like protein 1 (Homo sapiens) (UniProt Q9NR56) (assay: qHTS Assay for Inhibitors of MBNL1-poly(CUG) RNA binding). Conditions: TR-FRET MBNL1-His/biotin-(CUG)12 binding, 665/545 ratio; activity change, negative = inhibition: at 57.5 µM (top of the series).
Sequence of UniProt Q9NR56 (Q9NR56 whole entry, looked up): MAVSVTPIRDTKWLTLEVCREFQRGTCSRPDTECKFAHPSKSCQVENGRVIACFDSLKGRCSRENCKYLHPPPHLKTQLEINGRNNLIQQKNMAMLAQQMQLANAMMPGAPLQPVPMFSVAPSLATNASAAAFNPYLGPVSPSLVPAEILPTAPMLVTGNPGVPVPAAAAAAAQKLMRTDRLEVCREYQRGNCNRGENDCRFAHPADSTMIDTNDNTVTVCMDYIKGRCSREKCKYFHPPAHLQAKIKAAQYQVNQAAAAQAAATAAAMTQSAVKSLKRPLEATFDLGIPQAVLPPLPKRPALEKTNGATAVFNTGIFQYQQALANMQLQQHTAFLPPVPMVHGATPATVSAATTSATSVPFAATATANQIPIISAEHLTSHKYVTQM
Procedure, shortened: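 Compounds (final 92 nM to 58 uM) are added to His-tagged MBNL1 and biotin-(CUG)12, then terbium anti-His antibody and streptavidin-XL665 (5 nM final). After 60 min at room temperature, the 665/545 nm ratio is read.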
With `CC(Sc1ccc2c(c1)OCCO2)C(=O)Nc1ccc(N2CCOCC2)cc1` (stereo not given) the “activity change, negative = inhibition” value was inactive: -7.82%. For `O=C(CN1CCN(c2ccccc2O)CC1)Nc1cc([N+](=O)[O-])ccc1Cl`, the Potency was inconclusive: 14.1 µM [quencher, partial curve]. For `Cc1cc(N/N=C/c2ccc([N+](=O)[O-])o2)nc2ccccc12`, the Potency was inconclusive: 3.98 µM [quencher, side channel, full curve, poor fit]. In the case of `O=C(CCc1nc2ccccc2c(=O)[nH]1)Nc1ccc(F)c([N+](=O)[O-])c1`, the Potency is reported as inconclusive: 28.2 µM [quencher, side channel, partial curve]. `O=C(Nc1nnc(-c2ccccn2)o1)c1cccc(Br)c1` was tested, and the “activity change, negative = inhibition” value was inactive: -11.9%. `Cc1ccc2c(c1)N(CCC(=O)NCC1COc3ccccc3O1)C(=O)CO2` (stereo not given) was tested, and the Potency was inconclusive: 8.91 µM [quencher, side channel, single point]. For `Nc1ccc(N(CCO)CCO)cc1`, the Potency was inconclusive: 20 µM [quencher, side channel, partial curve]. In the case of `O=C(Nc1ccccc1O)c1ccc2c(c1)C(=O)N(N1C(=O)c3ccccc3C1=O)C2=O`, the Potency is reported as inconclusive: 15.8 µM [quencher, side channel, partial curve]. With `COc1ccc(NC(=O)C2CCN(S(=O)(=O)c3cccc4nonc34)CC2)c(OC)c1` the Potency was inconclusive: 3.16 µM [quencher, side channel, full curve, poor fit]. For `Cc1cc(=O)oc(C)c1C(=O)Nc1ccc2nsnc2c1`, the Potency was inconclusive: 10 µM [quencher, side channel, partial curve]. With `COc1cccc(C(=O)COc2cccc(NC(=O)c3cccc([N+](=O)[O-])c3)c2)c1` the “activity change, negative = inhibition” value was inactive: 22.8%. `CS(=O)(=O)CCC(C(=O)N1CCOCC1)N1C(=O)c2cc(Cl)c(Cl)cc2C1=O` (stereo not given) was tested, and the Potency was inconclusive: 39.8 µM [quencher, single point]. For `Cc1ccc(N2C(=O)c3cccc([N+](=O)[O-])c3C2=O)cc1C`, the Potency was inconclusive: 12.6 µM [quencher, side channel, partial curve]. In the case of `C/C(=N\NC(=O)CO/N=C(\C)c1cccs1)c1ccc(N)cc1`, the “activity change, negative = inhibition” value is reported as inactive: 21.1%. With `Cc1cc([N+](=O)[O-])c2c(c1C)C1C=CCC1C(c1ccccn1)N2` (stereo not given) the Potency was inconclusive: 28.2 µM [quencher, single point]. With `O=c1[nH]cnc2c1ncn2Cc1ccc([N+](=O)[O-])cc1` the Potency was inconclusive: 12.6 µM [quencher, partial curve]. For `O=C(CSc1nnc(-c2ccccc2Br)o1)Nc1cccc2ccccc12`, the Potency was inconclusive: 5.01 µM [quencher, side channel, single point]. With `N#CCC(=O)N/N=C/c1cc([N+](=O)[O-])ccc1N1CCOCC1` the Potency was inconclusive: 12.6 µM [quencher, side channel, partial curve]. `CN1CC=C2C(C#N)=C(N)C(C#N)(C#N)[C@H](c3cccs3)[C@H]2C1` was tested, and the Potency was inconclusive: 25.1 µM [quencher, side channel, single point]. With `CCc1nnc(NC(=O)c2ccc3ncsc3c2)s1` the Potency was inconclusive: 63.1 µM [inhibitor, single point]. In the case of `COc1ccc(/C=N/Nc2nccnc2Cl)cc1`, the Potency is reported as inconclusive: 14.1 µM [quencher, side channel, partial curve]. For `COc1cc(N=c2oc3c(C)ncc(CO)c3cc2C(N)=O)cc(OC)c1OC`, the Potency was inconclusive: 8.91 µM [quencher, side channel, partial curve]. In the case of `Cc1cc(NC(=O)Nc2ccccc2[N+](=O)[O-])n(C)n1`, the Potency is reported as inconclusive: 11.2 µM [quencher, side channel, partial curve]. In the case of `COC(=O)CNC(=O)c1cc(-c2ccncc2)nc2c(C)c(Cl)ccc12`, the Potency is reported as inconclusive: 8.91 µM [quencher, side channel, partial curve]. With `Cc1onc(-c2ccccc2)c1C(=O)NNC(=S)NC(=O)c1ccc(Br)cc1` the Potency was inconclusive: 28.2 µM [fluorescent, side channel, partial curve]. In the case of `Cc1cc(C)c2ccc(N)nc2c1O`, the “activity change, negative = inhibition” value is reported as inactive: -0.211%. `CCc1cccc(N=c2c([N+](=O)[O-])nn(-c3ccc4c(c3)OCCO4)n2O)c1` was tested, and the Potency was inconclusive: 17.8 µM [quencher, side channel, partial curve]. `Cc1cc(NS(=O)(=O)c2ccc(NC(=O)Cc3ccc([N+](=O)[O-])cc3)cc2)no1` was tested, and the Potency was inconclusive: 15.8 µM [quencher, side channel, partial curve]. With `O=C(O)CN1C(=O)C(=O)N(Cc2cccc(F)c2)C1=O` the “activity change, negative = inhibition” value was inactive: 3.18%. In the case of `O=C(COc1cccnc1[N+](=O)[O-])NCc1ccccc1`, the Potency is reported as inconclusive: 28.2 µM [quencher, side channel, partial curve]. In the case of `CCCC12CN3CC(C)(CN(C1)C31CCCCC1)C2=O`, the “activity change, negative = inhibition” value is reported as inactive: -12.5%. `CSCCC(NC(=O)c1ccco1)C(=O)OCc1cc([N+](=O)[O-])cc2c1OCOC2` (stereo not given) was tested, and the Potency was inconclusive: 15.8 µM [quencher, side channel, partial curve]. With `CCc1ccc(OCC(=O)Nc2ccc(-c3nc4ccccc4o3)c(O)c2)cc1` the “activity change, negative = inhibition” value was inactive: 44.7%. With `O=[N+]([O-])c1ccc(Nc2ccccc2O)c2nonc12` the Potency was inconclusive: 8.91 µM [quencher, side channel, partial curve]. For `CC1CCCCC1NC(=O)C1CCN(S(=O)(=O)c2cccc3nonc23)CC1` (stereo not given), the Potency was inconclusive: 20 µM [quencher, side channel, partial curve]. For `Cc1ccc(C(=O)CSc2nc3ccccc3c(=O)[nH]2)cc1C`, the Potency was inconclusive: 25.1 µM [fluorescent, side channel, single point]. For `COc1cc(N2CCCC2)c(OC)cc1/C=C1/NC(=S)NC1=O`, the Potency was inconclusive: 15.8 µM [quencher, side channel, partial curve]. For `CN1CCN(c2ccccc2NC(=O)c2ccc(N3CCCCC3)c([N+](=O)[O-])c2)CC1`, the Potency was inconclusive: 11.2 µM [quencher, partial curve]. `CC(C)CC(=O)NC(=S)Nc1ccc(N2CCN(C(=O)c3cccs3)CC2)cc1` was tested, and the “activity change, negative = inhibition” value was inactive: 6.35%. With `CCOc1cc(C2C(C#N)=C(N)Oc3n[nH]c(-c4ccncc4)c32)cc([N+](=O)[O-])c1O` (stereo not given) the Potency was inconclusive: 17.8 µM [quencher, side channel, partial curve, poor fit]. For `NC(N)=Nc1nc(-c2ccccc2)c2cc(F)ccc2n1`, the Potency was inconclusive: 35.5 µM [quencher, side channel, single point]. With `C=CCSc1nnc(-c2cc3c(C(F)(F)F)nn(C)c3s2)n1C` the “activity change, negative = inhibition” value was inactive: -5.49%. `Cc1ccccc1OCC(=O)Nc1ccc([N+](=O)[O-])cc1` was tested, and the “activity change, negative = inhibition” value was inactive: 5.11%. With `CCN1/C(=C/c2ccc3cc(C)ccc3[n+]2C)Sc2ccc3sccc3c21` the Potency was inconclusive: 7.08 µM [quencher, side channel, full curve]. `Cc1nc(SCC(=O)N2CCCc3ccccc32)c2oc3ccccc3c2n1` was tested, and the “activity change, negative = inhibition” value was inactive: 17.9%. For `O=C(Nc1ccncc1)c1ccc(Cl)c([N+](=O)[O-])c1`, the Potency was inconclusive: 3.98 µM [quencher, side channel, partial curve]. With `COc1ccc(NC(=O)c2cc3ccc(O)cc3o/c2=N\O)cc1` the Potency was inconclusive: 8.91 µM [quencher, side channel, partial curve]. `CCCCOC(=O)C1CN(c2ccccc2)N=C1C(=O)OCC` (stereo not given) was tested, and the Potency was inconclusive: 11.2 µM [quencher, side channel, partial curve]. For `COc1cc(C(=O)Nc2ccc3c(c2)OCO3)c([N+](=O)[O-])cc1OC`, the Potency was inconclusive: 8.91 µM [quencher, side channel, partial curve]. For `O=C(CN1CCN(Cc2ccccc2)CC1)Nc1ccccc1-c1ccccc1`, the “activity change, negative = inhibition” value was inactive: -1.79%. `COc1cc(/C=N\NC(=O)c2ccc(Cn3nc([N+](=O)[O-])c(Cl)c3C)o2)ccc1O` was tested, and the Potency was inconclusive: 12.6 µM [quencher, side channel, partial curve]. In the case of `COc1ccccc1N1CCN(C(=O)CSc2nnc3c4ccccc4nc(Cc4ccccc4)n23)CC1`, the Potency is reported as inconclusive: 1 µM [fluorescent, side channel, partial curve]. `COCCNC(=O)c1ccc(N2CCC3(CC2)OCCO3)c([N+](=O)[O-])c1` was tested, and the Potency was inconclusive: 11.2 µM [quencher, side channel, partial curve, poor fit]. `COc1cc(CN2CCC(Cc3ccccc3)CC2)cc([N+](=O)[O-])c1O` was tested, and the Potency was inconclusive: 17.8 µM [quencher, side channel, partial curve]. With `O=c1[nH]n(-c2ccccn2)c(=O)c2ccccc12` the “activity change, negative = inhibition” value was inactive: 13%. For `COc1ccc(CNc2oc(COc3ccccc3)nc2C#N)cc1`, the “activity change, negative = inhibition” value was inactive: 4.18%. In the case of `Cc1ccc(-c2cc(C(=O)NN3CCOCC3)c3cc(Br)ccc3n2)o1`, the Potency is reported as inconclusive: 20 µM [quencher, side channel, partial curve]. `COC(C(=O)Nc1ccc(S(=O)(=O)Nc2cccc3ccccc23)cc1)c1ccccc1` (stereo not given) was tested, and the activity change, negative = inhibition was inconclusive: 21.7% [phenotype inactive]. For `CCOC(=O)CS(=O)(=O)CC(=O)Nc1ccc([N+](=O)[O-])cc1OC`, the Potency was inconclusive: 25.1 µM [quencher, side channel, partial curve]. `CC1CN(C(=O)c2ccc(N3CCCCC3)c([N+](=O)[O-])c2)CC(C)O1` (stereo not given) was tested, and the Potency was inconclusive: 5.62 µM [quencher, side channel, partial curve].
